Experimental data: PMC4336329 (PLoS ONE, 2015)
The whole screen tested about 310,000 compounds, of which about 2,200 (0.71%) showed an effect of 50% or more. Effects have a minus sign here. The list shows a part of the results.

Target: human ether-à-go-go-related gene (hERG) potassium channel (human, UniProt Q12809)
Test: primary screen, population patch clamp on CHO cells stably expressing hERG

Sequence of human ether-à-go-go-related gene (hERG) potassium channel (Q12809 whole entry, looked up): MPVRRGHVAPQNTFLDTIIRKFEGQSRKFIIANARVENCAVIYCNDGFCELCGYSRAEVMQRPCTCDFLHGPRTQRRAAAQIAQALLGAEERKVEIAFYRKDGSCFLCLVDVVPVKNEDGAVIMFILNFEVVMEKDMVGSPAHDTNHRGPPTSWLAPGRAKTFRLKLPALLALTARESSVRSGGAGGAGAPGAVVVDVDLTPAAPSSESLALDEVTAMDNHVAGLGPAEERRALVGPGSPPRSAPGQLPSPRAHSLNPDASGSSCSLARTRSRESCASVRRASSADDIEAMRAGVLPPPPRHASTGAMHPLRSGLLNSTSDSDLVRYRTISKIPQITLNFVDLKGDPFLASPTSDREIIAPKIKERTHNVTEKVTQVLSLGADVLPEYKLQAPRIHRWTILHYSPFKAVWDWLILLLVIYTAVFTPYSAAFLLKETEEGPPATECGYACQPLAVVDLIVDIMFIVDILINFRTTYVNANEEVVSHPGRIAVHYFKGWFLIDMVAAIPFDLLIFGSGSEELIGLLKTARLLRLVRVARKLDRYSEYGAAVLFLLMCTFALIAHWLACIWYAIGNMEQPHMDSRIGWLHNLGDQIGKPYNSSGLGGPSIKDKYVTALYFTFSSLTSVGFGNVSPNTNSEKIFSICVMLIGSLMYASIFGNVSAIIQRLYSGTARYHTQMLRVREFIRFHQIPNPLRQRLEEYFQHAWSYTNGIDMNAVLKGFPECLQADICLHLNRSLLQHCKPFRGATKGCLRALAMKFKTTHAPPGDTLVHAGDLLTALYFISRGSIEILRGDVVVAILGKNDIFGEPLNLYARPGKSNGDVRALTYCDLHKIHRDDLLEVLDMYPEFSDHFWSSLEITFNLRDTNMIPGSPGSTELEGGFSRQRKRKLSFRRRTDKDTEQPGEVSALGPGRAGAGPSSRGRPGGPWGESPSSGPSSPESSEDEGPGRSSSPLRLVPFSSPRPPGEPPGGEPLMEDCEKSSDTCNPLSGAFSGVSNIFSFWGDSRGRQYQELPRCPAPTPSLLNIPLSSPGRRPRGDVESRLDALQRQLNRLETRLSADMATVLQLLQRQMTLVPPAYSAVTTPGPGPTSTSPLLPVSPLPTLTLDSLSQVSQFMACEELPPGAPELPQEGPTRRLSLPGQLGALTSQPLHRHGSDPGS

Going from CCN1CCN(CCCNC(=O)c2ccc(NC(=O)C3=C(C)OCCS3)cc2)CC1 to CCOc1ccc(S(=O)(=O)NCCCN2CCOCC2)c2ccccc12, the “hERG current change (%, negative = inhibition) at 1uM” value falls from 13.4% to 1.43%.

First: O=C(Cn1ncc2c3ccccc3n(Cc3ccccc3)c2c1=O)NCCCN1CCOCC1
Second: Cn1c(C(=O)O)c(CC(=O)N2CCC(Cc3ccccc3)CC2)c2ccccc21
The “hERG current change (%, negative = inhibition) at 1uM” value of the first is higher: 2.54% for the first, -3.18% for the second.

Compared with CCc1ccc(-c2nc(NC(=S)NC(=O)c3cccs3)sc2C)cc1, CCOC(=O)Cc1csc(NC(=S)NC(=O)c2cccc([N+](=O)[O-])c2)n1 is lower in “hERG current change (%, negative = inhibition) at 1uM” value: 9.56% for the first, 6.54% for the second.

First: COc1ccc(C(=O)N2CCCC(Nc3ccc(C(C)C)cc3)C2)c(OC)n1 (stereo not shown)
Second: CC(C)c1ccc(NC(=O)[C@@H](C)NC(=O)[C@@H]2Cc3ccccc3CN2)cc1
The “hERG current change (%, negative = inhibition) at 1uM” value of the first is higher: 0.702% for the first, -5.9% for the second.

Going from Cn1ncc(Cl)c1C(=O)NC1CCCC1 to Cc1ccc(S(=O)(=O)NC2CCCCCC2)cc1C(N)=O, the “hERG current change (%, negative = inhibition) at 1uM” value falls from 18.1% to 4.19%.

First: Cc1ccc(C(=O)C(C)OC(=O)Cc2n[nH]c(=O)c3ccccc23)cc1 (stereo not shown)
Second: Cc1ccc(S(=O)(=O)CCC(=O)OC(C)C(=O)N2CCc3ccccc32)cc1 (stereo not shown)
The “hERG current change (%, negative = inhibition) at 1uM” value of the first is lower: 2.02% for the first, 7.11% for the second.

First: O=C(CSc1nnc(-c2ccccc2F)o1)N1CCCC1
Second: O=C(CCSc1nnc(-c2ccc(O)cc2)o1)N1CCOCC1
The “hERG current change (%, negative = inhibition) at 1uM” value of the first is higher: 11.7% for the first, 8.46% for the second.

Going from Cc1c(C)c2cc(Cl)c(O)c(CN3CCCC(C)C3)c2oc1=O (stereo not shown) to COc1ccc(C)cc1S(=O)(=O)N1CCCC(C(=O)NCC2CCCO2)C1 (stereo not shown), the “hERG current change (%, negative = inhibition) at 1uM” value falls from 17% to 4.64%.

Compared with COc1ccccc1C(=O)NCCC(=O)NCCC12CC3CC(CC(C3)C1)C2, CC(NC(=O)CC12CC3CC(CC(C3)C1)C2)C(=O)O (stereo not shown) is higher in “hERG current change (%, negative = inhibition) at 1uM” value: 6.91% for the first, 11.1% for the second.

Going from COCc1ccc(CN2CCCC(CO)(Cc3ccccc3C)C2)o1 (stereo not shown) to O=C(O)CC1(CC(=O)Nc2ccc3ccccc3c2)CCCCC1, the “hERG current change (%, negative = inhibition) at 1uM” value rises from 12.2% to 13.2%.

Going from Cc1ccc(-c2[nH]nc3c2C(c2ccc(OC(=O)N4CCOCC4)cc2)C(C#N)=C(N)O3)cc1 (stereo not shown) to Cc1ccc(CSc2nnc(-c3cccc(S(=O)(=O)N4CCOCC4)c3)n2C2CCCC2)cc1, the “hERG current change (%, negative = inhibition) at 1uM” value falls from 10.5% to 0.995%.

First: COc1ccccc1-c1ccc(SCc2cccc(C)c2)nn1
Second: Cc1ccc(C)c(NCC(O)c2ccccc2)c1 (stereo not shown)
The “hERG current change (%, negative = inhibition) at 1uM” value of the first is higher: 8.38% for the first, 7.53% for the second.

Compared with COc1ccc(S(=O)(=O)NNC(=S)NCCc2ccccc2)c(OC)c1, CCN(c1ccccc1)S(=O)(=O)c1ccc(OC)c(NC(=O)CNCCc2ccccc2)c1.O=C(O)C(=O)O is higher in “hERG current change (%, negative = inhibition) at 1uM” value: 2.58% for the first, 5.89% for the second.

First: COc1ccc(C(=O)Nc2ccc(NC(=O)Cc3ccccc3)cn2)cc1
Second: COc1ccc(OCc2cccc(C(=O)Nc3cc(C)on3)c2)cc1
The “hERG current change (%, negative = inhibition) at 1uM” value of the first is higher: 12.3% for the first, -13.7% for the second.

Going from CCC(=O)c1ccc(OCC(=O)N(C)CC(=O)Nc2cccc(F)c2)cc1 to COc1ccc(C(=O)NNC(=O)COC(=O)c2sccc2C)cc1, the “hERG current change (%, negative = inhibition) at 1uM” value falls from 4.85% to 0.581%.

First: CCOC(=O)CN(C)C(=O)CCc1nnc(-c2ccc(-c3ccccc3)cc2)o1
Second: COc1ccc(-c2nnc(C3CCN(S(=O)(=O)c4ccccc4)CC3)o2)cc1
The “hERG current change (%, negative = inhibition) at 1uM” value of the first is higher: 6.45% for the first, 2.56% for the second.

Compared with O=C(Nc1cc(S(=O)(=O)N2CCCCC2)ccc1N1CCOCC1)c1ccc(C(F)(F)F)cc1, NC(=S)NN=C1c2cc(S(=O)(=O)N3CCOCC3)ccc2-c2ccc(S(=O)(=O)N3CCOCC3)cc21 is higher in “hERG current change (%, negative = inhibition) at 1uM” value: -0.42% for the first, 7.25% for the second.

First: Cc1ccc(NC(=O)C2=C(C(=O)O)CCCC2)cc1F
Second: Cc1ccc(NC(=O)N2CCCC(C(=O)O)C2)cc1 (stereo not shown)
The “hERG current change (%, negative = inhibition) at 1uM” value of the first is higher: 14.4% for the first, 11.7% for the second.

Going from CCCC1=C(C(=O)OCC)C(/C=C/c2ccccc2)n2ncnc2N1 (stereo not shown) to Cc1cc(-c2n[nH]c(=S)n2/N=C/C(Br)=C/c2ccccc2)n[nH]1, the “hERG current change (%, negative = inhibition) at 1uM” value rises from 8.9% to 11.3%.

O=C(OCC(=O)N1CCCC1)c1cc(Cl)ccc1Cl and COc1ccccc1CNS(=O)(=O)c1c(C)[nH]c(C)c1C(=O)N1CCCC1 are the same in “hERG current change (%, negative = inhibition) at 1uM” value: 11.9% for the first, 11.9% for the second.

First: O=C(COC(=O)CCc1c[nH]c2ccccc12)NCc1ccc(Cl)cc1
Second: O=C(CNC(=O)c1sc2ccccc2c1Cl)NCc1ccc(F)cc1
The “hERG current change (%, negative = inhibition) at 1uM” value of the first is lower: 4.52% for the first, 11.7% for the second.

First: CCOC(=O)c1cc2sccc2n1CC(=O)c1ccc2c(c1)OCCO2
Second: O=C(NC(=S)Nc1cccc(Cl)c1N1CCCCC1)c1ccc2c(c1)OCCO2
The “hERG current change (%, negative = inhibition) at 1uM” value of the first is lower: -3.39% for the first, 17.3% for the second.

Compared with CC1CN(S(=O)(=O)c2ccc(NC(=O)c3ccco3)cc2)CC(C)O1 (stereo not shown), CC(=O)Nc1ccc(S(=O)(=O)NCc2csc(-c3cccnc3)n2)cc1 is higher in “hERG current change (%, negative = inhibition) at 1uM” value: 7.8% for the first, 13.6% for the second.

Going from Cc1occc1-c1nnc(SCC(=O)NC2CCC(C)CC2)o1 (stereo not shown) to CC(C)(C)c1nc(SCC(=O)NC2CCCC2)c2ccccc2n1, the “hERG current change (%, negative = inhibition) at 1uM” value rises from -5.89% to 11%.

Compared with CCCOc1ccc(C(=O)NC(=S)N2CCN(c3cc4c(cc3F)c(=O)c(C(=O)O)cn4CC)CC2)cc1, COc1ccc(C2=NS(=O)(=O)N(C)C(C(=O)N3CCN(C)CC3)=C2)cc1 is lower in “hERG current change (%, negative = inhibition) at 1uM” value: 17.1% for the first, 7.21% for the second.

Going from CC(C)CCNC(=O)CCSCCC(=O)NCCC(C)C to CC[C@@H](C)[C@@H](C(=O)N1CCN(C(=O)OC(C)(C)C)CC1)n1cc(CCCCNC(=O)OC(C)(C)C)nn1, the “hERG current change (%, negative = inhibition) at 1uM” value rises from 0.306% to 2.55%.

First: CCn1c(C2CCN(S(=O)(=O)c3ccc(OC)cc3)CC2)n[nH]c1=S
Second: COc1ccc(S(=O)(=O)NCCSC(C)(C)C)cc1
The “hERG current change (%, negative = inhibition) at 1uM” value of the first is lower: -1.17% for the first, 17.1% for the second.

Going from CCN(CC)C(=O)Cn1cnc2sc(C)c(S(=O)(=O)N3CCC(C)CC3)c2c1=O to Cc1ccc(CNC(=O)C2CCC(=O)N(CC3CCCCC3)C2)o1 (stereo not shown), the “hERG current change (%, negative = inhibition) at 1uM” value rises from 5.28% to 22.7%.

First: Cc1cc(C)nc(NC(N)=NCCc2c[nH]c3ccccc23)n1
Second: Cc1ccc(NC(=O)COC(=O)c2c[nH]c3ccccc23)cc1C
The “hERG current change (%, negative = inhibition) at 1uM” value of the first is lower: 17% for the first, 19.9% for the second.

Going from O=C(CN1CCN(C2CCCCC2)CC1)c1c[nH]c2ccccc12 to Cc1cc(C(=O)CSc2nc3ccccc3o2)c(C)n1CC1CCCO1 (stereo not shown), the “hERG current change (%, negative = inhibition) at 1uM” value rises from -4.12% to -0.54%.

Going from COc1ccc(N(CC(=O)Nc2cccc(N(C)S(C)(=O)=O)c2)S(=O)(=O)c2ccccc2)cc1Cl to Cc1c(C(=O)N(C)c2cccc(Cl)c2)cnn1-c1ccccc1, the “hERG current change (%, negative = inhibition) at 1uM” value rises from 6.4% to 6.8%.

First: O=C(Nc1cccc2ccccc12)C12CC3CC(C1)CC(n1cnc([N+](=O)[O-])n1)(C3)C2
Second: O=C(Nc1ccc(C2CC2(Cl)Cl)cc1)c1cccc([N+](=O)[O-])c1 (stereo not shown)
The “hERG current change (%, negative = inhibition) at 1uM” value of the first is lower: -24.5% for the first, 13.9% for the second.

Going from CCC(CC)NC(=O)c1cccc([N+](=O)[O-])c1C to O=[N+]([O-])c1ccccc1Nc1ccccc1, the “hERG current change (%, negative = inhibition) at 1uM” value rises from 0.221% to 9.58%.

First: Cn1c(SCC(=O)NCc2ccc3c(c2)OCO3)nnc1-c1cc2ccccc2cc1O
Second: O=C(O)CCSc1nnc(COc2ccc(Cl)cc2)n1-c1ccccc1
The “hERG current change (%, negative = inhibition) at 1uM” value of the first is lower: 9.97% for the first, 12.8% for the second.

Going from COc1ccc(CC(=O)N/N=C(\C)c2cccnc2)cc1 to O=C(N/N=C(\CC(=O)c1cccs1)C(F)(F)F)c1cccnc1, the “hERG current change (%, negative = inhibition) at 1uM” value rises from -5.17% to 12.7%.

First: CP(=O)(Nc1ccc(Cl)cc1)c1nc2c(s1)CCCC2 (stereo not shown)
Second: Cc1nc(/N=C\c2ccc(N(C)C)cc2)sc1C
The “hERG current change (%, negative = inhibition) at 1uM” value of the first is lower: 11.6% for the first, 12.1% for the second.

First: OCC[C@H]1C[C@H](O)[C@@H](O)[C@@]2(CCCO2)O1
Second: CCCCN(C)CCN1C(=O)C2C(C(=O)Nc3cccc(OC)c3)C3C=CC2(O3)C1C(=O)NC1CCCCC1C (stereo not shown)
The “hERG current change (%, negative = inhibition) at 1uM” value of the first is higher: 17.6% for the first, 15.9% for the second.

Going from CCOC(=O)C1=C(C)N(c2ccc(C)cc2)C(=O)/C1=C\c1ccc(O)c(OC)c1 to COC(=O)c1ccccc1NC(=O)Nc1cccc(C)n1, the “hERG current change (%, negative = inhibition) at 1uM” value falls from 9.25% to 7.16%.

Compared with O=C1CCC(=O)N1CCOP1(=O)COc2ccccc2OC1, O=Cc1cn(-c2ccccc2)nc1-c1ccc2c(c1)OCCO2 is lower in “hERG current change (%, negative = inhibition) at 1uM” value: 20.3% for the first, 5.48% for the second.

Going from CCSC(=Nc1ccccc1)C1=C(O)COC1=O to COc1ccccc1/C=C/C=N/NC(=O)c1ccc2nc[nH]c2c1, the “hERG current change (%, negative = inhibition) at 1uM” value falls from 15.5% to 6.34%.

Going from CN(C)/C=C/C(=O)c1cnc(-c2ccccn2)s1 to CC(=O)Nc1ccc(Nc2ncnc3c2cnn3-c2ccccc2)cc1, the “hERG current change (%, negative = inhibition) at 1uM” value rises from 9.79% to 10.7%.

Compared with Cc1ccc(NNC(=O)C(O)(c2cccc(C(F)(F)F)c2)c2cccc(C(F)(F)F)c2)cc1, CNC(=O)Nc1ccc(Cn2cc(C(F)(F)F)ccc2=O)cc1 is higher in “hERG current change (%, negative = inhibition) at 1uM” value: 0.287% for the first, 12.4% for the second.

First: CN(C)N=O
Second: Cc1cc(C)n(-c2nc3ccccc3n3c(C)nnc23)n1
The “hERG current change (%, negative = inhibition) at 1uM” value of the first is higher: 25.1% for the first, 10.3% for the second.

Going from COc1ccc2c(c1OC)C(=O)OC2Nc1nc(-c2cc3cc([N+](=O)[O-])ccc3oc2=O)cs1 (stereo not shown) to O=C(NCc1ccccn1)C(=O)NCC1OCCCN1S(=O)(=O)c1cc(F)ccc1F (stereo not shown), the “hERG current change (%, negative = inhibition) at 1uM” value falls from 21.6% to 8.02%.
